Measured values published in PubChem BioAssay AID588591 (National Center for Advancing Translational Sciences (NCATS), 2011).
Out of some 390,000 compounds screened, about 4,700 (1.2%) were called active. This list was built around the results that the source calls inconclusive (neither active nor inactive); the mix of calls is not that of the screen. Calls come from the whole dose curve; as a rule, active = well fitted inhibition curve with a large enough effect; inconclusive = small, poorly fitted or top-dose-only effect, or another doubt; inactive = no such curve, though single readings can be large or run the other way. Potencies beside an inconclusive call are fits to weak or partial responses and may not hold up.

Molecular target: DNA polymerase eta (Homo sapiens) (UniProt Q9Y253)
Chain of UniProt Q9Y253 (Q9Y253 whole entry, looked up): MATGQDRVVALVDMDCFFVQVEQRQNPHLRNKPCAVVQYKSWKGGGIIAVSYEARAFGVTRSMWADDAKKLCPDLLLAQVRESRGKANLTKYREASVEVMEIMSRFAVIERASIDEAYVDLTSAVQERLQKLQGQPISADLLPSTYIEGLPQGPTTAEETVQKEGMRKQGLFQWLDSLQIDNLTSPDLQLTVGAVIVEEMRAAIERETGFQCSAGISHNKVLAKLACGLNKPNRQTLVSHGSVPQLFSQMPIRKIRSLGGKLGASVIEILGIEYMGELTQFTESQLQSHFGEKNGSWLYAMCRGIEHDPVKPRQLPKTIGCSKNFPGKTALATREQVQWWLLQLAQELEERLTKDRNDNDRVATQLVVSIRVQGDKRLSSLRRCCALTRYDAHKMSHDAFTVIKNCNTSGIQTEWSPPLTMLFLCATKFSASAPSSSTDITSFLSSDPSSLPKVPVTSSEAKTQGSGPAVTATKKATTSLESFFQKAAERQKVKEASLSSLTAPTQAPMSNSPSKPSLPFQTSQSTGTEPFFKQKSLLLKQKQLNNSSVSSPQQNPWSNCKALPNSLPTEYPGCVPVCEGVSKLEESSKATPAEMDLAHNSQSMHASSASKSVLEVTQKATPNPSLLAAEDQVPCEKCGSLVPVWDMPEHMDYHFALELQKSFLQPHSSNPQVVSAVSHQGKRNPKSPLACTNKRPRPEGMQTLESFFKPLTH
Experiment: qHTS for Inhibitors of Polymerase Eta
Settings: recombinant Pol eta, fluorescent DNA replication assay; series mostly up to 114 µM
In short: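 Fluorescent replication assay: 50 nM final substrate added after a 15 min room-temperature compound preincubation with 10 nM enzyme. Signal taken at 0 min and again at 10 min.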
Potency is the fitted concentration of half-maximal effect; tags give direction and shape of the fitted curve.

**Q.** `COC(=O)C1=C(O)/C(=C\c2ccc(CNS(=O)(=O)c3ccc(Cl)cc3)o2)N=C1C` was tested. Which Potency did it give?
**A.** Its Potency is inconclusive: 31.6 µM [inhibitor, single point].

**Q.** How did the Potency turn out when `COc1ccc(S(=O)(=O)N(Cc2nc(-c3ccc(Cl)cc3)no2)C2CCCCC2)cc1` was run?
**A.** The Potency was “inactive”.

**Q.** For `COc1ccc(OC(C)C(=O)NCc2nc(-c3cccc(C)c3)no2)cc1` (centres undefined), which Potency is on record?
**A.** Its Potency is “inactive”.

**Q.** With `Cc1ccc(NC2C(=O)NC(=O)NC2=O)cc1` as the compound, how does the Potency read?
**A.** Its Potency is active: 79.4 µM.

**Q.** How did the Potency turn out when `CCOc1ccc(NC(=O)N(C)CCc2c(C)nn(C)c2C)cc1` was run?
**A.** The Potency was “inactive”.

**Q.** Which Potency does the source give for `COc1ccc(/C=C/C(=O)Nc2ccc(-c3nnc4n3CCCCC4)cc2)c(OC)c1` here?
**A.** Its Potency is inconclusive: 28.2 µM [inhibitor, partial curve, poor fit].

**Q.** How did the Potency turn out when `Cc1ccc(NC(=O)Cn2c(=O)c3cccn3c3ccccc32)c(Cl)c1` was run?
**A.** The Potency was inconclusive: 31.6 µM [inhibitor, partial curve].

**Q.** With `CCc1ccc(S(=O)(=O)N(C(=O)c2ccncc2)c2ccc(OC(=O)c3ccncc3)cc2)cc1` as the compound, how does the Potency read?
**A.** Its Potency is inconclusive: 25.1 µM [inhibitor, partial curve].

**Q.** `O=S(=O)(Nc1cccc(Oc2ccc(Cl)cc2)n1)c1ccc(F)cc1` was tested. Which Potency did it give?
**A.** Its Potency is inconclusive: 56.2 µM [inhibitor, partial curve, poor fit].

**Q.** `O=C(NC(Cc1ccc(O)cc1)C(=O)N=Nc1c(O)[nH]c2ccccc12)c1ccccc1` (centres undefined) was tested. Which Potency did it give?
**A.** Its Potency is inconclusive: 25.1 µM [inhibitor, partial curve].

**Q.** `CSc1nn(Cc2cccc(Cl)c2)c(N(C(C)=O)C(C)=O)c1S(=O)(=O)c1ccccc1` was tested. Which Potency did it give?
**A.** The Potency was “inactive”.

**Q.** How did the Potency turn out when `O=C(Nc1ccc2nc3n(c(=O)c2c1)CCCCC3)c1c(F)ccc([N+](=O)[O-])c1F` was run?
**A.** Its Potency is active: 15.8 µM.

**Q.** `Cc1cccc(Nc2nc3c(S(=O)(=O)c4ccccc4)nnn3c3ccccc23)c1C` was tested. Which Potency did it give?
**A.** The Potency was inconclusive: 2.51 µM [inhibitor, full curve, poor fit].

**Q.** With `Cc1c2c(=O)n(-c3nc4ccccc4s3)nc-2cc(O)n1Cc1ccccc1` as the compound, how does the Potency read?
**A.** Its Potency is active: 44.7 µM.

**Q.** How did the Potency turn out when `O=C(/C=C/c1ccco1)N1CCN(C/C=C/c2ccccc2)CC1` was run?
**A.** The Potency was inconclusive: 17.8 µM [inhibitor, partial curve].

**Q.** How did the Potency turn out when `O=C(Nc1nc2ccccc2s1)C1CC(=O)N(c2ccc(Cl)cc2)C1` (centres undefined) was run?
**A.** Its Potency is inconclusive: 44.7 µM [inhibitor, partial curve, poor fit].

**Q.** How did the Potency turn out when `Cc1ccc(Cl)c(OCC(=O)NN2CCN(C)CC2)c1` was run?
**A.** Its Potency is inconclusive: 79.4 µM [inhibitor, partial curve, poor fit].

**Q.** With `Cc1ccc(CNC(=O)CN2CCN(Cc3ccc(C)cc3)C2=O)cc1` as the compound, how does the Potency read?
**A.** Its Potency is inconclusive: 79.4 µM [inhibitor, partial curve, poor fit].

**Q.** Which Potency does the source give for `Cc1ccc(C)c(Nc2nn3c(=O)c4cc5c(cc4nc3s2)OCO5)c1` here?
**A.** Its Potency is inconclusive: 89.1 µM [inhibitor, partial curve].

**Q.** With `O=C(O)c1ccc(COc2ccccc2[N+](=O)[O-])o1` as the compound, how does the Potency read?
**A.** The Potency was active: 12.6 µM.

**Q.** For `O=C(O)c1cc(NS(=O)(=O)c2ccc(N3CCCCC3)c([N+](=O)[O-])c2)cc(C(=O)O)c1`, which Potency is on record?
**A.** Its Potency is inconclusive: 14.1 µM [inhibitor, partial curve, poor fit].

**Q.** For `CCOc1ccc(CCNC(=O)c2ccc3c(c2)N(Cc2ccccc2F)C(=O)c2ccccc2S3=O)cc1OCC` (centres undefined), which Potency is on record?
**A.** Its Potency is inconclusive: 79.4 µM [inhibitor, partial curve, poor fit].

**Q.** Which Potency does the source give for `CC(=O)N(C1=C(Cl)C(=O)c2ccccc2C1=O)c1ccc(C(=O)O)cc1` here?
**A.** The Potency was active: 20 µM.

**Q.** For `CCN1CCC2(CC1)C(C#N)=C(N)Oc1c2sc2nc(C)cc(C)c12`, which Potency is on record?
**A.** Its Potency is inconclusive: 17.8 µM [inhibitor, partial curve, poor fit].

**Q.** With `CC(=O)Oc1cccc(N2C(=O)C3CC=C(Cl)CC3C2=O)c1` (centres undefined) as the compound, how does the Potency read?
**A.** Its Potency is inconclusive: 31.6 µM [inhibitor, partial curve, poor fit].

**Q.** How did the Potency turn out when `C=CCn1c(COc2ccc(F)cc2)nnc1SCC(=O)NC(=O)NCc1ccco1` was run?
**A.** Its Potency is inconclusive: 89.1 µM [inhibitor, partial curve, poor fit].

**Q.** How did the Potency turn out when `Cn1c2ccccc2c2ccc3c(c21)C(=O)C=CC3=O` was run?
**A.** The Potency was inconclusive: 12.6 µM [inhibitor, full curve, poor fit].

**Q.** Which Potency does the source give for `CCc1ccc(N2CSC3=C(C#N)C(c4cccs4)CC(=O)N3C2)cc1` (centres undefined) here?
**A.** The Potency was inconclusive: 31.6 µM [inhibitor, partial curve, poor fit].

**Q.** For `COc1ccc2c(c1)O[C@H](c1ccc3c(c1)OCO3)[C@@H](O)C2=O`, which Potency is on record?
**A.** The Potency was “inactive”.

**Q.** For `CCN(CC)CCN(C(=O)c1ccc2c(c1)CCCC2)c1nc2ccc(OC)cc2s1`, which Potency is on record?
**A.** Its Potency is inconclusive: 31.6 µM [inhibitor, partial curve, poor fit].

**Q.** For `CCN(CC)C(=O)CSCc1cnn(-c2ccccc2)c1-n1cccc1`, which Potency is on record?
**A.** The Potency was inconclusive: 31.6 µM [inhibitor, partial curve, poor fit].

**Q.** Which Potency does the source give for `Cc1ccc2c(c1)-c1nc3ccccc3cc1C2=NC1CCCCC1` here?
**A.** Its Potency is inconclusive: 31.6 µM [inhibitor, partial curve, poor fit].

**Q.** With `Cc1nn(-c2ccccc2)c(C)c1NC(=O)COC(=O)c1ccc(NC(=O)CC#N)cc1` as the compound, how does the Potency read?
**A.** Its Potency is inconclusive: 20 µM [inhibitor, partial curve, poor fit].

**Q.** `Cc1ccc(C)n1-c1nc(=S)[nH][nH]1` was tested. Which Potency did it give?
**A.** Its Potency is active: 44.7 µM.

**Q.** Which Potency does the source give for `COc1ccc(Br)cc1/C=C/C(=O)c1ccc(NC(C)=O)cc1` here?
**A.** Its Potency is inconclusive: 25.1 µM [inhibitor, single point].

**Q.** With `CCN(CC)CCOc1c(Br)ccc2c1sc1nc3n(c(=O)c12)CCC3` as the compound, how does the Potency read?
**A.** The Potency was “inactive”.

**Q.** For `CCCCN1C(=O)C(=Nc2cccc3cnccc23)c2ccccc21`, which Potency is on record?
**A.** The Potency was inconclusive: 89.1 µM [inhibitor, partial curve, poor fit].

**Q.** Which Potency does the source give for `Cc1[nH]n(-c2ccc(Br)cc2)c(=O)c1C=Nc1ccc(S(=O)(=O)Nc2nccs2)cc1` here?
**A.** The Potency was active: 44.7 µM.

**Q.** Which Potency does the source give for `O=C(O)C1OC1(c1ccccc1Cl)c1ccccc1Cl` (centres undefined) here?
**A.** Its Potency is inconclusive: 28.2 µM [inhibitor, single point].

**Q.** `Cc1ccc(C(=O)ONc2ccc(N=NC(=O)c3ccccc3O)cc2)cc1` was tested. Which Potency did it give?
**A.** The Potency was active: 8.91 µM.

**Q.** How did the Potency turn out when `Cn1c(N)c(C(=O)CSc2nnc(-c3c[nH]c4ccccc34)n2C2CC2)c(=O)[nH]c1=O` was run?
**A.** The Potency was inconclusive: 56.2 µM [inhibitor, partial curve, poor fit].

**Q.** `CCn1cc2nc(SCc3cccc(C(F)(F)F)c3)n(Cc3ccc(OC)cc3)c(=O)c2n1` was tested. Which Potency did it give?
**A.** Its Potency is “inactive”.

**Q.** Which Potency does the source give for `C=CCNC(=O)c1ccc(Cn2c(=S)[nH]c3cc4c(cc3c2=O)OCO4)cc1` here?
**A.** Its Potency is inconclusive: 79.4 µM [inhibitor, partial curve].

**Q.** Which Potency does the source give for `O=C(C[C@H]1C/C=C\CC[C@@H](Cc2ccc(F)cc2)C(=O)OC[C@H]2CCCN2C1=O)NCCO` here?
**A.** The Potency was “inactive”.

**Q.** `CC1=CC(=O)C(C(C)C)=C/C1=C(\c1cc(C(C)C)c(OP(=O)(O)O)cc1C)c1ccccc1C(=O)O` was tested. Which Potency did it give?
**A.** The Potency was active: 79.4 µM.

**Q.** Which Potency does the source give for `CC1CCCC(C)N1Cc1cn2ccccc2n1` (centres undefined) here?
**A.** The Potency was “inactive”.

**Q.** Which Potency does the source give for `Cc1ccc(-n2nc(-c3ccco3)cc2C(=O)NCc2cccnc2)cc1` here?
**A.** Its Potency is inconclusive: 15.8 µM [inhibitor, full curve, poor fit].

**Q.** For `O=C(Nc1nncs1)c1cc(-c2ccco2)nc2ccccc12`, which Potency is on record?
**A.** The Potency was active: 14.1 µM.

**Q.** With `Cc1ccc(C)c(C(=O)C(C)OC(=O)CN2C(=O)NC3(CC(C)CC(C)(C)C3)C2=O)c1` (centres undefined) as the compound, how does the Potency read?
**A.** The Potency was inconclusive: 50.1 µM [inhibitor, partial curve, poor fit].

**Q.** How did the Potency turn out when `CSc1ccc(/C=N/NC(=O)c2ccc(C)c(C)c2)cc1` was run?
**A.** Its Potency is inconclusive: 28.2 µM [inhibitor, partial curve, poor fit].

**Q.** Which Potency does the source give for `CCOc1nc(NCCO)nc(Nc2ccc([N+](=O)[O-])cc2)n1` here?
**A.** The Potency was inconclusive: 50.1 µM [inhibitor, partial curve].

**Q.** How did the Potency turn out when `CCOc1ccc2cc(C3CC(c4ccco4)=NN3S(C)(=O)=O)c(=O)[nH]c2c1` (centres undefined) was run?
**A.** Its Potency is inconclusive: 63.1 µM [inhibitor, partial curve, poor fit].

**Q.** How did the Potency turn out when `CC(=O)c1ccc(N2CCN(C(=O)COc3ccc4c(c3)CCC4)CC2)cc1` was run?
**A.** The Potency was active: 56.2 µM.

**Q.** `Cc1ccc(C(=O)NCc2ccccc2)cc1NC(=O)c1nsc2ccccc12` was tested. Which Potency did it give?
**A.** Its Potency is inconclusive: 56.2 µM [inhibitor, partial curve, poor fit].

**Q.** For `O=C(Cc1c(F)cccc1Cl)N1CCOCC1`, which Potency is on record?
**A.** Its Potency is “inactive”.

**Q.** With `Cc1ccn2c(=O)nc(SCC(=O)c3ccccc3)nc2c1` as the compound, how does the Potency read?
**A.** Its Potency is active: 20 µM.

**Q.** How did the Potency turn out when `CC(=O)c1ccc(S(=O)(=O)N(C)CC(=O)Nc2cc(C)on2)cc1` was run?
**A.** The Potency was inconclusive: 12.6 µM [inhibitor, full curve, poor fit].

**Q.** `CC(=O)c1ccc(NC(=O)CSc2ccc3nnc(CCNS(=O)(=O)c4ccc(C)cc4)n3n2)cc1` was tested. Which Potency did it give?
**A.** The Potency was inconclusive: 89.1 µM [inhibitor, single point].

**Q.** `CCOCCCNC(=O)c1ccc2c(=O)n(CCc3ccc(OC)c(OC)c3)c(=O)[nH]c2c1` was tested. Which Potency did it give?
**A.** Its Potency is “inactive”.

**Q.** `Cc1ccc(C)c(N2C(=O)c3ccc(C(=O)OCC(=O)c4c(N)n(C)c(=O)n(C)c4=O)cc3C2=O)c1` was tested. Which Potency did it give?
**A.** The Potency was inconclusive: 39.8 µM [inhibitor, partial curve, poor fit].

**Q.** For `CCCSc1nc2c(c(=O)[nH]c(=O)n2C)n1Cc1ccc(C)cc1`, which Potency is on record?
**A.** Its Potency is inconclusive: 11.2 µM [inhibitor, partial curve].

**Q.** `CCOc1ccc2nc(N3C(=O)/C(=C/c4ccccc4)NC3=S)sc2c1` was tested. Which Potency did it give?
**A.** The Potency was inconclusive: 25.1 µM [inhibitor, partial curve].

**Q.** For `CC(=O)NC(=S)Nc1ccc(NC(=S)NC(=O)/C=C/c2ccco2)cc1`, which Potency is on record?
**A.** The Potency was inconclusive: 56.2 µM [inhibitor, partial curve, poor fit].

**Q.** How did the Potency turn out when `Cc1ccccc1CNCc1c(C(=O)O)c(C)n(Cc2ccc(F)cc2Cl)c1C` was run?
**A.** The Potency was “inactive”.
